# Test results published in PubChem BioAssay AID504845 (National Center for Advancing Translational Sciences (NCATS), 2011).
# About 150 (0.038%) of roughly 390,000 compounds were called active. Inconclusive results, whose numbers are uncertain, are shown with a selection of clear calls. Calls come from the whole dose curve; as a rule, active = well fitted inhibition curve with a large enough effect; inconclusive = small, poorly fitted or top-dose-only effect; inactive = no such curve, though single readings can be large or run the other way. Where the call is inconclusive, the potency comes from a doubtful curve fit.
# Target: Regulator of G-protein signaling 4 (Homo sapiens) (UniProt P49798)
# Test: Inhibitors of Regulator of G Protein Signaling (RGS) 4: qHTS; note: nearly all actives have a fitted effect of over 75% in size
# Details: Transcreener GDP fluorescence polarization, RGS4-accelerated GTP hydrolysis; series mostly up to 114 µM; activity change, negative = inhibition: at the top concentration
# Procedure, shortened: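 MLSMR compounds (23 nl, pin-transferred) preincubated 10 min at room temperature with a 500nM (2x) first reagent, then RGS4 at 900nM (2x) plus Transcreener GDP mix added; fluorescence polarization (620/688 nm) read before and after 90 min at 30 °C.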
# % is set by controls: 0 for no effect and ±100 for the full control effect; potency is the fitted concentration of half-maximal effect; tags give direction and shape of the fitted curve.
# Chain of UniProt P49798 (P49798 whole entry, looked up): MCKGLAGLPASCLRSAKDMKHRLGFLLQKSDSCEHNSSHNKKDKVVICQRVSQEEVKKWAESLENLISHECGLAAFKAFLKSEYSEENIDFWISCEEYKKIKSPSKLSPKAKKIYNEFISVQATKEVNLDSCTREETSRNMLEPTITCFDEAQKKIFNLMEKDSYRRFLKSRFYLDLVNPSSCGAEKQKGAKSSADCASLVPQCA
Compound,Potency,"activity change, negative = inhibition"
O=C1c2ccccc2CC[C@H]1CNCCc1ccc(O)cc1,active: 4.23 µM,
CCOc1cc(C(=O)Nc2ccc3oc(-c4ccc(F)cc4Cl)nc3c2)cc(OCC)c1OCC,,inactive: -19.1%
CCN(CC)c1ccc(N=Cc2cc(Br)ccc2O)cc1,,inactive: -103% [at 11.4 µM]
COc1cccc(C(C(=O)NC2CCCCC2)N(C(=O)c2ccco2)c2ccccc2OC)c1 (configuration not stated),,inactive: 2.85%
COc1cc(/C=N/N2C(=O)CSC2=S)ccc1O,,inactive: -23%
Oc1cccc(-c2nnc(-c3cccc(O)c3)nn2)c1,,inactive: -31.6%
CCOC(=O)c1[nH]c(C)c(C(=O)OCC)c1C,,inactive: 16.3%
CC(=O)Nc1ccc(NC(=O)CSc2nnnn2-c2ccc(F)cc2)cc1,,inactive: -27.8%
CCOC(=O)C1CCN(C(=O)Nc2ccc3nc(-c4ccco4)c(-c4ccco4)nc3c2)CC1,"inconclusive: 89.1 µM [inhibitor, partial curve, poor fit]",
Cc1nc(SC2CC(=O)N(c3ccc([N+](=O)[O-])cc3)C2=O)nc2c1CCCC2 (configuration not stated),"inconclusive: 89.1 µM [inhibitor, single point]",
Clc1cccc(Nc2nc(-c3ccncc3)nc3ccccc23)c1,"inconclusive: 50.1 µM [inhibitor, partial curve, poor fit]",
CCCS(=O)(=O)c1ncc(Cl)c(C(=O)N2CCN(c3ccc(OC)cc3)CC2)n1,"inconclusive: 44.7 µM [inhibitor, partial curve, poor fit]",
COC(=O)c1ccc(NC(=O)c2ccc(NC(=O)c3ccco3)cc2)cc1,"inconclusive: 31.6 µM [inhibitor, full curve, poor fit]",
O=S(=O)(Cc1noc(-c2ccc(Cl)cc2)n1)Cc1ccco1,"inconclusive: 50.1 µM [inhibitor, partial curve, poor fit]",
Cc1ccc(Nc2c(-c3ccc(C)o3)nc3ncccn23)cc1,"inconclusive: 89.1 µM [inhibitor, single point]",
Cc1cccc(NC(=O)c2ccc(C(=O)Nc3cccc(C)c3C)cc2)c1C,"inconclusive: 100 µM [inhibitor, single point]",
CCOc1ccc(C(c2c(O)nc(SC)[nH]c2=O)c2c(O)nc(SC)[nH]c2=O)cc1,"inconclusive: 50.1 µM [inhibitor, partial curve, poor fit]",
CCn1c(SCC(=O)c2ccc(Cl)cc2)nnc1-c1ccoc1C,"inconclusive: 17.8 µM [inhibitor, full curve, poor fit]",
Cc1ccc(NC(=O)CCn2c(=O)oc3ccccc32)cc1,"inconclusive: 100 µM [inhibitor, single point]",
CCCCCCCCOC(=O)c1cc([N+](=O)[O-])c(Sc2ncnc3nc[nH]c23)c([N+](=O)[O-])c1,"inconclusive: 17.8 µM [inhibitor, full curve, poor fit]",
O=S(=O)(Nc1cccc(Cl)c1)c1ccc2[nH]c3c(c2c1)CCCCCC3,"inconclusive: 89.1 µM [inhibitor, single point]",
COC(=O)c1ccc(NCCc2csc(-c3ccc(C)cc3)n2)c([N+](=O)[O-])c1,"inconclusive: 100 µM [inhibitor, single point]",
Fc1ccc(CO/N=C/C2=C(Cl)c3ccccc3CC2)cc1,"inconclusive: 79.4 µM [inhibitor, single point]",

Compound,Potency,"activity change, negative = inhibition"
Cc1ccc(-c2ccc(CCC(=O)O)n2C(C)C)cc1,"inconclusive: 89.1 µM [inhibitor, partial curve, poor fit]",
CCOC(=O)C1=C(C)NC2(O)c3ccccc3C(=O)C12O (configuration not stated),"inconclusive: 70.8 µM [inhibitor, partial curve, poor fit]",
Cc1cc(C)n(CC(=O)Nc2ccc(F)c(F)c2)c(=O)c1C#N,,inactive: 18.5%
CC(C)(C)Nc1nc(Cl)nc(N(C#N)CN2C(=O)c3ccccc3S2(=O)=O)n1,"inconclusive: 44.7 µM [inhibitor, partial curve, poor fit]",
O=C(CSc1nnc(COc2ccc(Cl)cc2)o1)Nc1ccccc1,,inactive: 23.6%
COc1ccc(N2C(=O)C3C(C2=O)C(C(=O)c2ccc(Cl)cc2)N2CCCC32)cc1 (configuration not stated),"inconclusive: 100 µM [inhibitor, partial curve, poor fit]",
N#Cc1c(/N=C/c2ccco2)oc(-c2ccccc2)c1-c1ccccc1,"inconclusive: 79.4 µM [inhibitor, partial curve, poor fit]",
[O-]/C(=C(\C(=S)Nc1ccccc1F)[n+]1ccccc1)c1ccc(-c2ccccc2)cc1,"inconclusive: 89.1 µM [inhibitor, partial curve, poor fit]",
O=C(CCc1nc2ccccc2c(=O)[nH]1)NCCN1C(=O)S/C(=C\c2ccccc2Cl)C1=O,"inconclusive: 100 µM [inhibitor, single point]",
C(=N\Nc1nncc2ccccc12)/c1ccccc1,,inactive: -18.7%
COc1cccc(/C=N/NC(=O)c2cc(C34CC5CC(CC(C5)C3)C4)[nH]n2)c1,"inconclusive: 89.1 µM [inhibitor, single point]",
COc1cccc(OCC(=O)NNC(=S)Nc2ccc(Cl)cc2Cl)c1,"inconclusive: 79.4 µM [inhibitor, partial curve, poor fit]",
COc1ccc2c(c1)CCC1C2=NN(/C(C)=C/C(C)=O)C1c1cccc(F)c1 (configuration not stated),,inactive: 8.73%
Cc1nc2sccn2c1-c1nc(-c2cc3ccccc3o2)cs1,"inconclusive: 35.5 µM [inhibitor, partial curve, poor fit]",
Cc1c(OC(C)C(=O)NCc2ccccn2)ccc2c3c(c(=O)oc12)CCC3 (configuration not stated),"inconclusive: 79.4 µM [inhibitor, partial curve, poor fit]",
COc1ccc(S(=O)(=O)n2nc(OC(C)=O)cc2N)cc1,,inactive: -4.08%
COCCNC(=O)c1cccc(OC2CCN(C(C)COc3ccccc3)CC2)c1 (configuration not stated),,inactive: 4.1%
O=C1Cc2c([nH]c3ccc(Br)cc23)-c2ccccc2N1,"inconclusive: 13.4 µM [inhibitor, partial curve, poor fit]",
O=C(COC(=O)c1cc(=O)[nH]c2ccccc12)c1cccs1,"inconclusive: 89.1 µM [inhibitor, single point]",
c1ccc(Nc2nc(-c3ccccn3)cs2)cc1,,inactive: -4.87%
CC(C)(C)OC(=O)N/N=C\c1ccc(OC(=O)c2ccco2)cc1,"inconclusive: 39.8 µM [inhibitor, partial curve, poor fit]",
CCOc1ccc(-c2csc(NNC3=NCCCCC3)n2)cc1,"inconclusive: 56.2 µM [inhibitor, partial curve, poor fit]",
O=C(Cn1cc2c(n1)CCCCC2)NC1CCCCCC1,"inconclusive: 70.8 µM [inhibitor, single point]",

Compound,Potency,"activity change, negative = inhibition"
Cn1ncc(S(=O)(=O)Cc2ccccc2)c(Br)c1=O,active: 2.67 µM,
O=C(O)c1cccc(NC(=O)c2cn(-c3ccccc3)nc2-c2ccncc2)c1,"inconclusive: 56.2 µM [inhibitor, partial curve, poor fit]",
Cc1cc(NC(=O)Nc2cccc(Cl)c2)n(-c2ccccn2)n1,"inconclusive: 89.1 µM [inhibitor, single point]",
Cn1c(O)c(N=NC(=O)c2ccccc2O)c2ccccc21,"inconclusive: 50.1 µM [inhibitor, partial curve, poor fit]",
CSCCC1NC(=S)N(Cc2ccccc2)C1=O (configuration not stated),,inactive: 38%
CCn1c(=O)c(-[n+]2ccccc2)c(O)c2ccccc21,"inconclusive: 79.4 µM [inhibitor, single point]",
COCCNC(=O)C(c1ccco1)N(C(=O)Cn1nnc2ccccc21)c1ccccc1C (configuration not stated),,inactive: 14.4%
CCCCCCSc1ccc(-c2nc3ccc(C)cn3c2NCc2ccccc2)cc1OC,,inactive: 4.43%
Cn1c(SCc2ccccc2)nnc1-c1cnccn1,,inactive: -19.4%
CC(C)(C)NC(=O)C(c1ccccn1)N(C(=O)c1csnn1)C1CCCCC1 (configuration not stated),,inactive: -19.4%
CN1CCN(NS(=O)(=O)c2cccs2)CC1,"inconclusive: 79.4 µM [inhibitor, partial curve, poor fit]",
CC(CC1C(C#N)=C(N)SC(N)=C1C#N)c1ccccc1 (configuration not stated),"inconclusive: 20 µM [inhibitor, full curve, poor fit]",
Cc1c(CC(=O)NCc2ccccc2)c(=O)oc2c(C)c(O)ccc12,"inconclusive: 89.1 µM [inhibitor, single point]",
CCOC(=O)C1=C(O)c2ccccc2C(=O)/C1=C\c1ccc(C)cc1,"inconclusive: 10 µM [inhibitor, full curve, poor fit]",
O=C(Oc1ccc2ccc(O)cc2c1)C1CCCCC1,"inconclusive: 35.5 µM [inhibitor, full curve, poor fit]",
N#Cc1c(NCCO)nc(NCc2ccccc2)c2c1CCN(Cc1ccccc1)C2,"inconclusive: 70.8 µM [inhibitor, single point]",
CCCCSc1nnc2n(-c3cccc(C)c3)c(=O)c3c4c(sc3n12)CCCC4,,inactive: 8.19%
O=C(CSc1nnc(SCc2ccc(Cl)cc2)s1)N/N=C/c1c[nH]c2ccccc12,"inconclusive: 56.2 µM [inhibitor, partial curve, poor fit]",
Cn1c(/N=C/c2c(O)ccc3ccccc23)nc2ccccc21,"inconclusive: 28.2 µM [inhibitor, full curve, poor fit]",
O=C(CSCc1ccccc1Cl)NNC(=S)Nc1ccccc1,"inconclusive: 79.4 µM [inhibitor, partial curve, poor fit]",
Cc1ccccc1N1CCN(C2CCCN(C(=O)c3ccccn3)C2)CC1 (configuration not stated),"inconclusive: 79.4 µM [inhibitor, single point]",
